# Where two headings read alike, the source gives them in different places.
# B1: anti-TPBG-P5(PEG24)-VC-PAB-Exatecan DAR8 (conjugate)
# heavy: EVQLVQSGAEVKKPGASVKVSCKASGYSFTGYYMHWVRQAPGQGLEWMGRINPNNGVTLYNQKFKDRVTITRDTSTSTAYMELSSLRSEDTAVYYCARSTMITNYVMDYWGQGTLVTVSS[human IgG1 constant region with changes not spelt out]
# light: EIVMTQSPDSLAVSLGERATINCKASQSVSNDVAWYQQKPGQPPKLLIYYTSSRYAGVPDRFSGSGSGTDFTLTISSLQAEDVAVYYCQQDYNSPPTFGGGTKLEIKRTVAAPSVFIFPPSDEQLKSGTASVVCLLNNFYPREAKVQWKVDNALQSGNSQESVTEQDSKDSTYSLSSTLTLSKADYEKHKVYACEVTHQGLSSPVTKSFNRGEC
# Tests used:
# [1] = test system: MDA-MB-468 cells; settings: 5 μg/mL; 24, 48 and 72 h
# [2] = test system: BXPC-3 cells; experiment: In vitro cytotoxicity via resazurin assay, comparison with Anti-TPBG comparison ADC2, BXPC-3; type: cell-based; settings: BXPC-3 cells with lower 5T4 expression; 7 days
# [3] = test system: MDA-MB-468; settings: 7 days
# [4] = test system: SW-620; experiment: In vitro cytotoxicity via resazurin assay on antigen negative cell line SW-620; type: cell-based; settings: direct treatment
# [5] = 10 and 15 mg/kg intravenously on days 1 and 22
# [6] = test system: co-culture of BXPC-3 and SW-620 cells; experiment: Bystander killing, co-culture; type: cell-based; settings: BXPC-3 and SW-620, 5 days
# Description: For bystander assay performed as co-culture, 10.000 5T4-positive BXPC-3 cells and 2.000 5T4-negative SW-620 cells were incubated with increasing concentrations of ADC (0-3 μg/ml). After 5 days, cells were harvested and stained with a live/dead stain (Thermo Fisher Scientific) and fluorescently-labeled αTROP-2 (BioLegend) to distinguish between BXPC-3 (TROP-2 positive) and SW-620 (TROP-2 negative) cells. The percentage of viable BXPC-3 and SW-620 cells was analyzed by flow cytometry.
# [7] = test system: MDA-MB-468 cells (5T4 high); settings: 0.05-12 μg/ml, 72 h
# [8] = test system: Lu9744 squamous non-small cell lung cancer PDX; settings: all tested dose levels (5, 3, 1 mg/kg), once at day 0, intravenous
# [9] = test system: BXPC-3; settings: 7 days
# [10] = test system: antigen-positive tumor cells (cell lines with various TPBG expression levels); settings: all tested cell lines; 7 days
# [11] = test system: HN11218 Head and neck cancer PDX; settings: for Tumor response: single intravenous injection
# Description: All animal experiments were conducted in accordance with German animal welfare law and approved by local authorities. In brief, a 3×3 mm sample of a patient derived tumor sample (HN11218 Head and neck cancer (H&N) model, EPO Experimentelle Pharmakologie & Onkologie Berlin-Buch GmbH) was subcutaneously implanted into flanks of female immunodeficient NMRI nu/nu mice. Treatment was initiated when tumours reached a mean tumour volume of 0.1-0.15 cm^3. […] Tumour volumes, body weights and general health conditions were recorded throughout the whole study.
# [12] = 5, 3 and 1 mg/kg
# [13] = 0.2 mg/ml in at least 80% serum, 37° C., up to 7 days
# [14] = test system: 5T4-negative cells (SW-620); experiment: Bystander killing, supernatant transfer; type: cell-based; settings: supernatant from MDA-MB-468 or BXPC-3 after 5 days, SW-620 another 5 days
# Description: To analyze bystander activity of ADCs on target-negative cells, 20.000 5T4-positive cells (MDA-MB-468 or BXPC-3) were incubated with increasing concentrations of ADCs (0-3 μg/ml). After 5 days, half of the cell culture supernatant volumes was transferred to 5.000 5T4-negative cells (SW-620) and incubated for another 5 days. Killing was analyzed by a resazurin-based viability measurement as described above.
# [15] = test system: DU-145; settings: 7 days
# [16] = test system: MDA-MB-468 cells; experiment: In vitro cytotoxicity via resazurin assay, comparison with Anti-TPBG comparison ADC2, MDA-MB-468; type: cell-based; settings: MDA-MB-468 cells with high 5T4 level; 7 days
# [17] = test system: MDA-MB-468 and DU-145 target cells; experiment: Calcein release-based ADCC assay with human NK cells; type: cell-based; settings: 15 μg/ml, NK:target 4:1, 4 h
# From the text: For the Calcein release-based antibody-dependent cellular cytotoxicity (ADCC) assay, peripheral blood mononuclear cells (PBMCs) were isolated from healthy donor buffy coats (purchased from DONAS GmbH) using LeucoSep tubes (Greiner Bio-One) and Histopaque®-1077 (density 1.077 g/ml, Merck) density gradient according to standard protocols. Afterwards, natural killer (NK) cells were MACS (magnetic cell separation)-sorted using human NK cell isolation kit (Miltenyi Biotec) by negative selection according to the manufacturer's instructions yielding untouched human primary NK cells. 5T4-positive target cells MDA-MB-468 (5T4^high) and DU-145 (5T4^med) were stained with 16 μM Calcein AM (Thermo Fisher Scientific). 40.000 NK cells and 10.000 Calcein-stained target cells were incubated at a 4:1 ratio in the presence of 15 μg/ml antibodies or ADCs. Cells permeabilized with 2.5% Triton X 100 (Merck) served as a positive control for maximum Calcein release. After 4 h, supernatants were transferred to a flat black non-binding 96-well plate (Greiner Bio-One) and fluorescence was measured at 485/535 nM via the Infinite […] reader (Tecan). The percent specific killing was calculated by dividing the Calcein released by antibody-mediated killing minus background Calcein release (NKs+targets) from Calcein released by Triton X-permeabilized cells (maximum killing) minus background Calcein release (targets only). Graphs show means of n=2±SEM.
# [18] = test system: patient derived tumor models; settings: 10 mg/kg once at day 0, intravenous; lung, endometrial, breast, colon, gastric, Head and Neck, pancreatic, ovarian cancer, Sarcoma, Mesothelioma
molecule,measurement,setting,value
B1,"DNA-damage markers (active caspase-3, cleaved PARP, phosphorylated H2A.X)",[1],induces DNA-damage markers
same,Cytotoxic activity,[2],high cytotoxic activity
same,IC50,[3],0.0343 µg/mL
same,Minimal viability (EMax in %),[3],10.41%
same,Effect on antigen negative cell line SW-620 without preincubation with antigen positive cells,[4],did not have an effect
same,"Changes in body weight, clinical chemistry and hematology",[5],No severe changes
same,Bystander activity in the co-culture assay,[6],strong bystander activity
same,"DNA damage (cleaved PARP-, active caspase 3- and pH2AX-positive cells)",[7],concentration-dependent accumulation of DNA damage
same,Efficacy in the PDX model compared to the vehicle,[8],high and long-lasting efficacy
same,IC50,[9],0.089 µg/mL
same,Minimal viability (EMax in %),[9],16.8%
same,fold improved killing IC50 values compared to Anti-TPBG comparison ADC1,[10],18-66 fold
same,Tumor response,[11]; 1 mg/kg,started re-growing
same,Tumor response,[11]; 3 mg/kg,strong tumor growth inhibition
same,Tumor response,[11]; 5 mg/kg,Complete tumor remission
same,Bodyweight gain (tolerability),"[11]; all dose-levels (1, 3, 5 mg/kg)",No impact in bodyweight gain
same,Exposure profiles (PK analysis),[12],dose proportional exposure profiles
same,Stability of the ADC in vivo (total vs intact ADC),[12],high stability
same,Change in the Drug-to-Antibody Ratio (DAR) after serum incubation,[13],No change
same,Stability of the linker in sera of different species,[13],highly stable
same,Bystander activity on target-negative cells after supernatant transfer from target-positive cells,[14],high bystander activity
same,IC50,[15],0.0723 µg/mL
same,Minimal viability (EMax in %),[15],15.3%
same,fold improved killing IC50 values compared to Anti-TPBG comparison ADC2,[16],1.9 fold
same,ADCC activity in human NK cells,[17],did not induce ADCC
same,Efficacy in patient derived tumor models compared to vehicle,[18],very high efficacy

# — patent US20240245798A1, “NOVEL ANTI-TPBG ANTIBODY AND ANTIBODY-DRUG-CONJUGATES BASED THEREON, THERAPEUTIC METHODS AND USES THEREOF” (Tubulis GmbH, priority 2022, published 2024)
